Data on 72 sequences can be found in publication PMC10726135.

The list shows a part of the results. At the low end of the ranking, values are background and their order means little. Measured with an extract: partners may take part in the binding.

This assay addresses T1, HNF4alpha8 (COS-7 nuclear extract) (UniProt P41235-5).
T1 sequence: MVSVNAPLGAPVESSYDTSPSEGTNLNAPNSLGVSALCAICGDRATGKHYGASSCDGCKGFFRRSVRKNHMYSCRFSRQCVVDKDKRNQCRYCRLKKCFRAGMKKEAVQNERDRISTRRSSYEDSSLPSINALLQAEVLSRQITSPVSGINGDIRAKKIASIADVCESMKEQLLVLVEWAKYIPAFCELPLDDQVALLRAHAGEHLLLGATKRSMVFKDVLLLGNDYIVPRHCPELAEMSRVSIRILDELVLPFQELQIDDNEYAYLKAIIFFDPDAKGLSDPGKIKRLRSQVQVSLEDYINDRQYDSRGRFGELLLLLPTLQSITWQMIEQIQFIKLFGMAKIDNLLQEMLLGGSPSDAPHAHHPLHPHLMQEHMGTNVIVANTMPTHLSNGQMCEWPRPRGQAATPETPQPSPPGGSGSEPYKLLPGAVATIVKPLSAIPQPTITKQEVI
The assay can be described thus: protein-binding microarray. Particulars: COS-7 nuclear extract on double-stranded Agilent 4x180k PBM; binding buffer, salt, pH and temperature not given; high values mean tight binding; double strand, one strand shown; sequences stand for … in …GCCTAGGGAGATTAGAGTATCGGTCGA
For the sequence TTTCAGTGCCCTTTGAGATTTGCATTCATG, the binding signal (log2 normalized intensity) stood at 2.52.

As for AGAGGGCCTCTAGCCCAATATTTGCTTACC, the binding signal (log2 normalized intensity) was -1.37.

In the case of TCTCTGTAACATTCCTAGATATCAGGAAGG, the binding signal (log2 normalized intensity) turned out to be 0.0741.

Consider CACCCAGAACTTTGACCGTTTGATTATTTG, for which the binding signal (log2 normalized intensity) is 2.96.

Consider CCAGGTTGCATCAGCTGGGCTCGGCGCTCC, for which the binding signal (log2 normalized intensity) is -1.25.

With CCTAAAAGCTTTCTTGGGCAAGAAAGGGGT, the binding signal (log2 normalized intensity) was -1.2.

As for TCCAAAACATTGTAGAATTATCCAGATCAA, the binding signal (log2 normalized intensity) was -0.933.

Regarding ATAAGATGAAGCTCTCAGAATAGCAAATCT, the binding signal (log2 normalized intensity) was -1.44.

On to TCCCTCATATAATTTACATAACAGGTTTGT, for which the binding signal (log2 normalized intensity) turned out to be 1.72.

Take TCTTTTCTAAGATATTTGCATAGGCATTGT: the binding signal (log2 normalized intensity) was determined as 0.77.

Take TGTTTGCAGATGGTTTCATCTGGTTTCTGT: the binding signal (log2 normalized intensity) is 1.8.

ATTGAGGCCAGCAAAGGGCAAGTAAATGTG: the binding signal (log2 normalized intensity) turned out to be 0.992.

CTGACCTTTACCCATTCCTTAGTGCATGGG: the binding signal (log2 normalized intensity) worked out at 3.87.

ATACACCTTGCCTGGCTACCTCTTAGCTAC: the binding signal (log2 normalized intensity) is -1.3.

Consider GACCTCAATGTGCTCATCCATAAAATGGGG, for which the binding signal (log2 normalized intensity) is 0.132.

On to CTATCAGTTGAGATTTATTCCCAGGTTCCA, for which the binding signal (log2 normalized intensity) was determined as 0.833.

CCAGATGTCTGGCTAAGACCTTTAGTTAGC: the binding signal (log2 normalized intensity) was 1.54.

Take CCCTGGACTCAGCTCCCATAGAGTCCACCA: the binding signal (log2 normalized intensity) was 3.15.

Consider TAACCTTTGGCTGGTAGAGCAGGTTTCAGA, for which the binding signal (log2 normalized intensity) worked out at 1.98.

On to GGGGACTTCACATGCCTTTGTAGTTACCCA, for which the binding signal (log2 normalized intensity) was found to be 0.846.

As for ATATCATTAACCTATTATTTTATAGAAAAG, the binding signal (log2 normalized intensity) was 1.22.

In the case of CTGCGTTTCTCCTCTCTGGGCTTCCATTGT, the binding signal (log2 normalized intensity) is 1.03.

On to CTTCATGGAGAGAATTCCCATCCCACTAGG, for which the binding signal (log2 normalized intensity) was -1.42.

Take CCTAAGCCCTGCCACCCCCGTTAATTTCTA: the binding signal (log2 normalized intensity) is 2.98.

Turning to AAAAAAAAAAAAGAACACAGTGTAGAAGGC, the binding signal (log2 normalized intensity) is -1.21.

In the case of AGATAATGGGGGAGCCACTGCAGCTTTCTG, the binding signal (log2 normalized intensity) was -1.36.

Regarding AAAGATCAGTGTACTTAAAAATGCCTTTCA, the binding signal (log2 normalized intensity) was -1.29.

Turning to AGGAGGGAGGAGCATTTCACAGAAATTTTT, the binding signal (log2 normalized intensity) was -1.33.

For CCTCCCCCCAGTTCCCTGGGTCGCCAAGCC, the binding signal (log2 normalized intensity) came out at 3.7.

For GGGAGAGGAGTTTGTTCACCCACCAGAGGG, the binding signal (log2 normalized intensity) is -1.17.

For the sequence GGTCCTCTGCTGCCCTCTAGGGTTGCCCAG, the binding signal (log2 normalized intensity) stood at 2.11.

Turning to AGTCCCTGTCCCTTCTTGGCAAGTTAATGT, the binding signal (log2 normalized intensity) was determined as 1.57.

For TCCTCTCCCAGCCCCTAGCCCTAAGCAGGC, the binding signal (log2 normalized intensity) turned out to be 3.03.

In the case of TCTTCTTAGCCTTTGAACCCCACACCTCCC, the binding signal (log2 normalized intensity) came out at 5.21.

Regarding AAATCCCAAGCAGTGATATTCTCTCGTCAC, the binding signal (log2 normalized intensity) is -0.989.

Regarding CCACAGAAAAGGCAGCAGCTTGGAATGTCA, the binding signal (log2 normalized intensity) is -1.49.

Consider CAATAAGGACTTTGGACCGTCTTGTGGATC, for which the binding signal (log2 normalized intensity) turned out to be 6.72.

For the sequence ATTGAGAAAGATTAAGAGGCTACAACCAGA, the binding signal (log2 normalized intensity) is -1.2.

Regarding AGACATCACCTGCTCATTGACCCTTAGGCC, the binding signal (log2 normalized intensity) was determined as 4.59.

Take ACCTTTGCCTTCTTGACATCTCTCTCTGCA: the binding signal (log2 normalized intensity) was -0.0607.

Regarding TGACAAAATAACGAAGGCATTCTTAACAAA, the binding signal (log2 normalized intensity) was -1.31.

For the sequence TACAAAGGTGACTTGCCCAGACACACCTGC, the binding signal (log2 normalized intensity) is -1.31.

On to ACAATTTGAGGGGTCAAGAAGACCTGGGCT, for which the binding signal (log2 normalized intensity) is -0.805.

Turning to TGGATGGATCCGCAGCCAGGGCTGTTTTCT, the binding signal (log2 normalized intensity) was -1.06.

Regarding CTTATACTTGAGGTATGATGCATCCTGAGG, the binding signal (log2 normalized intensity) came out at 1.06.

Take TTGATGCCTGTTGCTCAGAATTACTGACTC: the binding signal (log2 normalized intensity) came out at 0.373.

Consider GAACTGAGTTTAGAATTTGAACTATGGTCA, for which the binding signal (log2 normalized intensity) stood at 5.62.

For GCTCTGGGCTAGTCCCTGAGTATTATCTTT, the binding signal (log2 normalized intensity) turned out to be 0.55.

For the sequence CATGGGCTGTCACCTTTACCCCCACTCTCC, the binding signal (log2 normalized intensity) came to 4.93.

Regarding TCTAACAGCTGATGAGGCACCAACACTTCC, the binding signal (log2 normalized intensity) was -1.3.

Take CCTATGAGCCAAACACCATGCTAGGCTTCT: the binding signal (log2 normalized intensity) was -1.23.

For the sequence TAAGTGACCCAGGAGGAGAAGGGTGGGAAT, the binding signal (log2 normalized intensity) is -1.25.

Consider AAGACTTTGGACTTTGGACCTGAGGCTTTT, for which the binding signal (log2 normalized intensity) came out at 10.3.

Consider CTCTGGCCACTGCAGGGAGGACAGACTCTG, for which the binding signal (log2 normalized intensity) was -1.27.

In the case of GCTGAGGCCCAGGAAGCTCCAGCGGGGTTT, the binding signal (log2 normalized intensity) was -1.34.

Regarding ATCTGCAAATGCTTCTCCTGGCTTTAGATA, the binding signal (log2 normalized intensity) was -1.27.

On to TATCAGCTTTGAGACACCTGGCCAAGTACA, for which the binding signal (log2 normalized intensity) was -0.899.

As to CACATTCCTAGACCTTTGACCTTTATACCT, the binding signal (log2 normalized intensity) was determined as 8.55.

Take ATATGAAAGAGCCATGGACTGCTGACCTTT: the binding signal (log2 normalized intensity) was 7.13.

Turning to TCCAAAGTTCTGAATGAGCAGACTGAGTTG, the binding signal (log2 normalized intensity) is -0.933.

As to TCTCAGGGTCCACATTCCAGGAATATTCAG, the binding signal (log2 normalized intensity) is 0.846.

Take TCCTCCCCTCCCCTCCCCCCACTCAAAATA: the binding signal (log2 normalized intensity) was 6.78.

CAATCCCATGACCTTTGTACTAATGATTTG: the binding signal (log2 normalized intensity) is 6.73.

For CCAAATAGGTCCCTGCTTCCAAGTCTCAGC, the binding signal (log2 normalized intensity) is -1.33.

Take CCTCCAATCAGGACAGACTGGTTGATCTGG: the binding signal (log2 normalized intensity) came to 1.05.

As for CTGATCACTACAAGCTTTGAAGGCAAGATA, the binding signal (log2 normalized intensity) is -1.34.

Take CGCAGATCCCCGCTCCCCTCCCCCACCCGC: the binding signal (log2 normalized intensity) stood at 6.34.

Regarding CAATCTTCTGGCCCCATCTATCTAGCCTGA, the binding signal (log2 normalized intensity) came out at 0.823.

As to TCTAGGGTTGCCCAGGGAGAGCTGGACTTT, the binding signal (log2 normalized intensity) is 6.83.

On to ATTGTGCTGACTGGTTGGAATTCCAGTGTT, for which the binding signal (log2 normalized intensity) is 1.19.

Take CCTCAGTGTGGGACTTTGGTCTGCTGAGTC: the binding signal (log2 normalized intensity) was 3.95.

With CAACATGGACTTTGAGTCATAAGAAACATT, the binding signal (log2 normalized intensity) stood at 4.28.
